Measurements from article PMC6919601, “Identification of Plasmodium dipeptidyl aminopeptidase allosteric inhibitors by high throughput screening” (PLoS ONE, 2019).
Where “and” joins values, the source holds several entries; their conditions need not be identical. Equal entries are not always repeated. About 230 (0.21%) of roughly 110,000 compounds showed an effect of 50% or more. The list shows a part of the results.

Each molecule was assayed against DPAP1 (Plasmodium falciparum, UniProt Q8IIJ9) (assay: primary screen, percent inhibition; read by cleavage of a fluorogenic dipeptide substrate; higher = more effect of the substance).
Set-up: species or system P. falciparum D10 trophozoite lysates; single well
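Note: 30 min substrate incubation versus DMSO and 10 µM JCP410 controls.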

Chain of DPAP1 (Q8IIJ9 whole entry, looked up): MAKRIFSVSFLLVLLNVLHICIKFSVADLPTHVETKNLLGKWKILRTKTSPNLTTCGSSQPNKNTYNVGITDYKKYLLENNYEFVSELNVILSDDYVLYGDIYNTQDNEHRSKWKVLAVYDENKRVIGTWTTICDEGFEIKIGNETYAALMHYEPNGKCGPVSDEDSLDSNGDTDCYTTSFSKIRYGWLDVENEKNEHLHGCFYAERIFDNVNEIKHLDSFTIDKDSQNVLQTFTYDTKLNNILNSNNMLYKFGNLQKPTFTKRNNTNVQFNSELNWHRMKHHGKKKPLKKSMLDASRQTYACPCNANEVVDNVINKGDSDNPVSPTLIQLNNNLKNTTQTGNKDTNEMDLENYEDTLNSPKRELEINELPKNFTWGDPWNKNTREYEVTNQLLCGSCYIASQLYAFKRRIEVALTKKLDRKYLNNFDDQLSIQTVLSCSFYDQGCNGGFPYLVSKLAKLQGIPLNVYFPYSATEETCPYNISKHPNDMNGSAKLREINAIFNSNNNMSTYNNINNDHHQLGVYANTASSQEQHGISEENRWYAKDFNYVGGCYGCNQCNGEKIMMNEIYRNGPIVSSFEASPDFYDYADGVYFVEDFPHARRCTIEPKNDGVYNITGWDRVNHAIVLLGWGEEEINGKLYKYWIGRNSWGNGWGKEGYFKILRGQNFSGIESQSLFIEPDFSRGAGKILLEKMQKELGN

Compound	% Inhibition @ 10 uM
CCOC(=O)c1c(C)nc(NC(C)=O)nc1N	1.29%
Cc1cc(C)nc(NS(=O)(=O)c2ccc(NC(=O)c3ccc(S(=O)(=O)N4CCCCC4)cc3)cc2)n1	-0.424%
CC(=O)N(C)c1ccc(NC(=O)COc2ccc(Cl)cc2Br)cc1	-13.4%
CN1CCN(C(=O)c2cc(Cl)ccc2NC(=O)c2ccco2)CC1	-8.92%
CN1C(=O)NC(c2ccccc2)C2=C1CN(c1ccccc1)C2=O (centres unmarked)	0.215%
Oc1nc2ccccc2n1CCCN1CCCCC1	6.64%
CCn1c(C(=O)NCc2ccc(C)cc2)cc2oc3ccccc3c21	-0.447%
C=CCSc1nc(O)cc(=O)n1-c1ccccc1	0.273%
Cc1ccccc1OCC(=O)Nc1ccc(Cl)c(C(N)=O)c1	-6.44%
CN1CCN(C(=O)Nc2ccccc2Cc2cccs2)CC1	-6.37% and 0.214%
Brc1ccc(OCc2ccccc2)c(CNCC2CCCO2)c1 (centres unmarked)	-11.5%
Cc1cc(C)cc(COC(=O)N[C@@H](CC(C)C)C(=O)NCC#N)c1	0.174%
N#Cc1cc(NC(=O)c2ccccc2)c(O)n2c1nc1ccccc12	2.36%
CCSc1nn2c(=O)c(C)nnc2s1	-0.671%
COc1ccc(C2=N/C(=C/C(C)=C/c3ccccc3)C(=O)O2)cc1Br	-0.251%
Cc1ccc(C(=O)N/C(=C/c2ccccc2F)C(=O)NC(C)C)cc1	1.35%
O=C(NCc1ccccc1Cl)C1CCC(=O)N1Cc1ccc(F)cc1 (centres unmarked)	-5.43%
CCCCCCn1c(SC)nc2c1c(=O)[nH]c(=O)n2C	-2.24%
CC1CCCC(NC(=O)C2CCN(c3nnc(-n4cccc4)s3)CC2)C1C (centres unmarked)	-0.735%
OCCN(Cc1ccccc1)Cc1ccc(F)c(F)c1	1.74%
O=C(CCn1ccc2cc(S(=O)(=O)N3CCCC3)ccc21)NCc1ccccc1	0.0496%
CCOC(=O)N1CCC(NCc2cccc(F)c2)CC1	-2.02%
CCCn1c2ccccc2c2cnn(CC(=O)Nc3cccnc3)c(=O)c21	-1.71%
CCOC(=O)c1c2c(n(-c3ccc(C)cc3)c1C)-c1ccccc1C(=O)C2=O	4.32%
O=C(c1ccc2c(c1)OCO2)N1CCN(c2ccccc2)CC1	-1.32%
CCCCCCc1nc2c(O)nc3ccccc3c2o1	8.44%

Compound	% Inhibition @ 10 uM
CCc1nc(SC)ncc1C(=O)NCc1ccccc1C	2.9%
CCCN(CCC)CCNC(=O)CNC(=O)Cn1ccc2ccccc2c1=O	-3.27%
O=C(NCC(=O)N1CCOCC1)c1ccccc1	15.6%
Cc1sc2ncnc(NCCO)c2c1C	-8.21%
Fc1ccc(F)c(CN2CCN(c3ccccc3F)CC2)c1	-2.34%
Cc1cc(C)c(/C=c2\sc3nc4cc(C)c(C)cc4n3c2=O)cc1C	4.52%
c1ccc2c3c(c(CN4CCCC4)cc2c1)COC3	0.674%
Cn1cc(S(=O)(=O)N2CCOCC2)cc1C(=O)N1CCn2c1nc1ccccc12	-6.32%
Cc1nnc2sc(NC(=O)c3ccccc3F)nn12	4.86%
O=c1/c(=C/C2=Cc3ccccc3OC2)sc2nc(-c3cccc(Cl)c3)nn12	0.561%
CCC1CCCCN1Cc1ccc(CN2CNc3c(c(=O)n(C)c(=O)n3C)C2)o1 (centres unmarked)	2.34%
Cc1ccc(NC(=O)c2ccc3c(c2)CCN3S(C)(=O)=O)cc1	2.48%
COc1ccc(CNC(=O)CN(c2ccccc2)S(=O)(=O)c2ccccc2)cc1	9.01%
COc1cccc(C2C(C#N)=C(N)Oc3[nH]nc(C)c32)c1OC (centres unmarked)	-4.33%
CCOc1ccc2nc(SCC(=O)Nc3ccccc3)c(C#N)cc2c1	7.17%
CN1C(=O)/C(=C/c2ccco2)S/C1=N\c1ccc(N2CCOCC2)cc1	8.7%
CCN1C(=O)CC(c2cccnc2)=Nc2ccccc21	1.57%
O=C(c1cc(-c2ccc(Cl)s2)nc2ccccc12)N1CCOCC1	-2.53%
Fc1ccc(-c2csc(Nc3ccc4c(c3)OCO4)n2)cc1	2%
O=C(ON1C(=O)CCC1=O)c1ccc(Cl)cc1Cl	8.74%
CC(C)Oc1ccc(NC(=O)c2ccco2)cc1	-5.5%
O=C(CCc1ccccc1)Nc1ccc(-c2ccc(NC(=O)CCc3ccccc3)cc2)cc1	0.968%
COc1cccc(N2CCN(C3CCN(C(C)=O)CC3)CC2)c1	-2.02%
COc1ccc(Br)cc1CNC(=O)Cc1cccs1	0.0198%
COc1ccc(C(CC(=O)Nc2ccc(C)cn2)N2Cc3ccccc3C2=O)cc1 (centres unmarked)	-10.3%
COCc1cc(O)n2nc(-c3ccc(C(C)(C)C)cc3)cc2n1	-7.23%

Compound	% Inhibition @ 10 uM
COc1ccc(/C=C(\C#N)c2nc(-c3cc4ccccc4c(=O)o3)cs2)cc1	-0.239%
COC(=O)c1cnn(-c2ccccc2)c1N	1.63%
CCC1CCC2(CC1)SCC(=O)N2c1ccc(F)cc1 (centres unmarked)	-2.67%
Cc1ccc2onc(CNC(=O)NCCCOC(C)C)c2c1	-2.26%
Fc1ccccc1CNCc1cccn1-c1nnc(N2CCOCC2)s1	-10.7%
Oc1nc(-c2ccccc2)nc2c1C1(CCCCC1)Cc1ccccc1-2	-2.55%
Cn1c(SCc2nc(-c3ccc(Cl)cc3)no2)nnc1-c1ccncc1	-0.45%
c1ccc(OCCCCCCN2CCCC2)cc1	-4.31%
CC(C)CCCNc1nc(N2CCOCC2)nc(N2CCOCC2)n1	-1.43%
CN1CCc2c1nc1ccccc1c2N	1.24%
CC(C)(C)S(=O)(=O)c1cccc2ccccc12	-2.18%
CCOC(=O)N1CCC(NC(=O)C2CCCN(S(=O)(=O)c3cccc4nonc34)C2)CC1 (centres unmarked)	-5.88%
Cc1ccc2[nH]c3c(cc(Nc4ccccc4)c4c(=O)c5ccccc5c(=O)c43)oc2c1	-2.91%
COc1ccc(CC(=O)Nc2nc3nc(C)cc(C)n3n2)cc1	5.2%
c1ccc(-c2cnc(-c3ccccc3)nc2)cc1	-3.27%
O=C(O)CNC(=O)/C(=C\c1ccccc1F)NC(=O)c1ccccc1	-1.52%
N#C/C(=C\c1ccccc1F)c1nc(-c2ccc(Cl)cc2)cs1	-3.67%
CC(C)CCN(CN1C(=O)c2ccccc2C1=O)CN1C(=O)c2ccccc2C1=O	-3.04%
CCOC(=O)N1CCN(C(=O)CS(=O)(=O)Cc2nc(-c3cccc(OC)c3)oc2C)CC1	-3.7%
COCCNc1oc(/C=C/c2cc(OC)c(OC)c(OC)c2)nc1C#N	4.13%
Cc1nc(N)c2c3c(sc2n1)CCCC3	4.93%
Cc1ccc(C)c(NC(=O)c2ccccc2C(=O)O)c1	2.48%
Cc1cccc(-n2cnc3cc(C(=O)NCc4ccco4)ccc32)c1	-1.99%
CC(C)C12CN3CC(C(C)C)(CN(C1)C3C(O)C(O)C(O)CO)C2=O (centres unmarked)	2.09%
COc1ccc(CNc2nc3c(S(=O)(=O)c4ccc(C(C)C)cc4)nnn3c3ccccc23)cc1	-4.85%
Cc1ccc(S(=O)(=O)N(C)CC(=O)c2ccccc2)cc1	2.36%

Compound	% Inhibition @ 10 uM
O=C(CN1CCOCC1)Nc1c2c(nc3c1CCC3)CCCC2	-6.34%
COc1ccc(C(=O)c2sc(NCc3ccccc3)nc2N)cc1	-5.17%
N#Cc1sc2nc3c(cc2c1N)CCCC3	1.41%
CCN(CC)CCNc1nc2c(c(=O)n(C)c(=O)n2C)n1C	-3.14%
Cc1ccc(C)c(OCC(=O)Nc2ccc3c(c2)OCO3)c1	-7.63%
O=C(Nc1ccc(F)c(Cl)c1)C12CC3CC(C1)CC(n1cnc(Br)n1)(C3)C2	-3.12%
CCN(CC)CCCNC(=O)C1CCN(c2nc3c(C)cc(C)cc3s2)CC1	-1.58%
Cc1cc2c(cc1C)-c1nnc(-c3ccco3)n1C(C)(C)C2	3.82%
COc1ccc(C2(CNC(=O)COc3ccccc3)CCOCC2)cc1	5.09%
CC(NC(=O)Cn1cc(C(=O)C(F)(F)F)c2ccccc21)c1ccccc1 (centres unmarked)	-1.72%
COc1ccccc1N1CCN(Cc2ccccc2Br)CC1	-3.65%
CCc1cc2c(=O)c(Oc3ccccc3)coc2cc1OC	-2.25%
O=C(/N=C1\SC2CS(=O)(=O)CC2N1c1ccccc1)c1ccccc1 (centres unmarked)	2.17%
COc1cc(CCC(=O)NCc2ccco2)on1	2.41%
O=C(c1cccc2ccccc12)N(Cc1ccc(Cl)cc1Cl)c1cccc(Cl)c1	3.42%
Cc1c(CN2CCN(c3cccc(Cl)c3)CC2)c(=O)n(-c2ccccc2)n1C	3.35%
COc1ccc(/C=C(/C#N)C(N)=O)cc1	-3.38%
NC(=O)c1c(NC(=O)COc2ccccc2)sc2c1CCCCCC2	-0.661%
CCN(CC)CCn1c(-c2ccc(Br)cc2)cn2c3ccccc3nc12	5.04%
CC1(C)CC2=Nc3ccccc3NC(c3cc(F)ccc3F)C2=C(O)C1 (centres unmarked)	-3.16%
CC1CCN(S(=O)(=O)c2ccc([N+](=O)[O-])cc2)CC1	0.526%
CC(NCc1c(C(=O)O)n(Cc2ccccc2Cl)c2ccccc12)c1ccccc1 (centres unmarked)	3.54%
COc1cccc(CNC(=O)Cn2nc(C)n3ccnc3c2=O)c1	18.9%
COC(=O)c1ccc(Cl)c(-c2ccc(C(=O)N[C@@H](Cc3c(F)cc(OC)cc3F)C(=O)NCC#N)cc2)c1	-6.56%
Cc1ccc(C2=NC(=O)/C(=C/c3sccc3C)S2)cc1	0.884%
CCOc1ccc(C(=O)Nc2cc(=O)n(C)c(=O)n2C)cc1	-7.56%
